The campaign covered roughly 410,000 compounds. About 7,200 (1.8%) were called active. The inconclusive results got no clear call from the source; some entries with a clear call stand among them for comparison. Calls follow the shape of the dose curve; as a rule, active = well fitted activation curve with a large enough effect; inconclusive = small, poorly fitted or top-dose-only effect, or another doubt; inactive = no such curve, though single readings can be large or run the other way. Where the call is inconclusive, the potency comes from a doubtful curve fit.
assay: qHTS of TDP-43 Inhibitors; settings: TDP-43 expressing yeast growth rescue, BacTiter-Glo, 24 h; growth rescue (activation): at 46.1 µM (top of the series) unless noted; also: nearly all actives have a fitted effect of over 50% in size; as to growth rescue (activation): % of control where 0% means no effect
Summary of the method: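 Luminescence from BacTiter-Glo reports growth of TDP-43-expressing yeast after 24 hr at 30 deg C with compound. Cells were raffinose-pregrown to mid-log, then seeded in galactose medium at OD600=0.02.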
Potency is read from the fitted curve at half-maximal effect; tags tell the direction and shape of the fitted curve.

Potency, inconclusive:
CNc1nc(N)c([N+](=O)[O-])c(NC2CCCCC2)n1 1.41 µM [activator, full curve], CCOC(=O)c1c(C)[nH]c2cc(Br)c(OC)cc12 2.51 µM [activator, full curve], CSc1nc(Cl)c(Cc2ccc(OC(C)C)cc2)c(N(C)C)n1 8.91 µM [activator, partial curve], O=C(NCc1cccs1)C1(S(=O)(=O)c2ccccc2)CC=CC1 10 µM [activator, partial curve], N#Cc1nc(-c2ccccc2Cl)oc1N1CCOCC1 31.6 µM [activator, single point], CCc1ccc(Nc2ncc3c(n2)CC(C)(C)CC3=O)cc1 35.5 µM [activator, single point], CC1CN(C(=O)c2ccc(COc3ccc(C(C)C)cc3)o2)CC(C)O1 (centres undefined) 35.5 µM [activator, single point], NNC(=O)c1csc(-c2ncc(C(F)(F)F)cc2Cl)n1 20 µM [activator, partial curve], COc1ccc(C(=O)NCCSc2c(C)[nH]c3ccccc23)cc1 35.5 µM [activator, single point], O=C1C=C(O)CC2(CCCCC2)C1 31.6 µM [activator, partial curve], Cc1ccc(NC(=O)c2cccc(OCc3c(C)noc3C)c2)c(C)c1 15.8 µM [activator, single point], CC(=O)Nc1cc(-c2ccc(C(=O)NC3CC3)cc2)cn2c(-c3cccc(C(F)(F)F)c3)cnc12 35.5 µM [activator, single point], CC(CCC(=O)O)C1CCC2C3CC(O)C4CC(O)CC[C@]4(C)C3CCC12C (some centres undefined) 35.5 µM [activator, single point], O=[N+]([O-])c1cccnc1Nc1ccc(Cl)cc1 1.26 µM [activator, partial curve], Clc1ccc(-c2nnc(-c3ccccc3)nc2N2CCSCC2)cc1 35.5 µM [activator, partial curve, poor fit], Cc1c(NS(C)(=O)=O)cccc1-c1nc2ccccc2s1 25.1 µM [activator, single point], Cc1cccc(/C=C2\Sc3ccc(C(=O)N4CCOCC4)cc3N(C)C2=O)c1 11.2 µM [activator, partial curve], O=C(CCNC(=O)c1ccccc1Cl)Nc1nc(-c2ccc3ccccc3c2)cs1 1.26 µM [activator, full curve], CC1(C)C2CCC1(C)C(NC(=O)/C=C/c1ccccc1)C2 (centres undefined) 35.5 µM [activator, single point], O=C(COC(=O)c1ncc(Cl)c(Cl)c1Cl)c1ccc(Cl)s1 2.82 µM [activator, full curve], Cc1ccc(NC(=O)CN2C=NS(=O)(=O)c3ccccc32)c(C)c1 3.98 µM [activator, partial curve], O=S(=O)(NCc1ccc(F)cc1)c1ccc2c(c1)OCCO2 15.8 µM [activator, single point], Cn1c(-n2c(-c3ccco3)nc3ccccc3c2=O)nc2ccccc21 35.5 µM [activator, single point], Cc1nc2cc(C(=O)O)ccc2n1-c1ccc(C(C)C)cc1 2.82 µM [activator, full curve, poor fit], COc1ccc(OCCC(=O)Nc2ccccc2)cc1 11.2 µM [activator, partial curve], COc1ccccc1Nc1nc(N)nc(CSC(=S)N2CCN(c3ccccc3)CC2)n1 11.2 µM [activator, partial curve], COc1ccccc1C(=O)N/C(=C\c1cn(S(=O)(=O)N(C)C)c2ccccc12)C(=O)N1CCCCC1 35.5 µM [activator, single point], CCOC(=O)C1=C(c2ccccc2)NC(=O)NC1c1ccc(O)c(Cl)c1 (centres undefined) 10 µM [activator, partial curve], Cn1nccc1C(=O)N1CCN(c2ccccc2Cl)CC1 15.8 µM [activator, single point], CC1(C)Cc2cccc(OCC(=O)Nc3nccs3)c2O1 11.2 µM [activator, partial curve], CCCOc1ccccc1/C=C1/C(=O)ON=C1C 12.6 µM [activator, partial curve], CSc1ccc(C(=O)C2CCCN(C(=O)c3ccc4c(c3)OCO4)C2)cc1 (centres undefined) 35.5 µM [activator, single point], O=C(CCCn1c2ccccc2c(=O)c2ccccc21)Nc1ccc(F)cc1Cl 6.31 µM [activator, partial curve], CCCC(C)C(=O)Nc1cc([N+](=O)[O-])ccc1Cl (centres undefined) 11.2 µM [activator, single point], Cc1ccc2c(CC(=O)OCc3nc(N)nc(Nc4ccccc4C)n3)coc2c1 35.5 µM [activator, single point], Cc1ccc(N2C(=O)c3ccccc3C2Nc2ccccc2F)nc1 (centres undefined) 11.2 µM [activator, partial curve], CCN(CC)c1nc2ccccc2n2cnnc12 14.1 µM [activator, single point], Cc1cc(C)n2c(Br)c(CSc3nc4ccccc4s3)nc2n1 35.5 µM [activator, single point], Brc1ccccc1-c1nnc2sc(Cc3ccccc3)nn12 22.4 µM [activator, single point], Cc1ccc(N(Cc2cccs2)C(=O)COc2ccccc2[N+](=O)[O-])cc1 14.1 µM [activator, single point]

Potency, active:
COc1ccc2c(c1)NC(=O)CC(c1ccccc1)=N2 14.1 µM, CCOC(=O)C(=CNc1ccc(Cl)cn1)C(=O)OCC 11.2 µM, Cc1ccccc1C(=O)OCn1nnc2ccccc2c1=O 14.1 µM, CC(C)(C)C(O)C(Cc1ccccc1Cl)n1cncn1 (centres undefined) 35.5 µM, Cc1cccc(C2C=C(c3ccc(F)cc3)Nc3nc4ccccc4n32)c1 (centres undefined) 31.6 µM, Cc1ccc(-c2cc(C(=O)OC3CCOC3=O)c3ccccc3n2)c(C)c1 (centres undefined) 17.8 µM, CC1C(=O)N(Cc2cn(CCC3OCCO3)nn2)CCS(=O)(=O)N1Cc1ccc(-c2ccc(Cl)c(Cl)c2)cc1 (centres undefined) 15.8 µM, CC1=C[C@H]2Cc3cc(C)cc(C)c3S(=O)(=O)[C@@H]2C=C1 15.8 µM, O=C(Nc1ccon1)c1cc2c(s1)CCCCCC2 12.6 µM, CC(C)[C@H](NC(=O)OC(C)(C)C)c1nnc(S(=O)(=O)Cc2c(F)cccc2Cl)o1 11.2 µM, COc1ccc(CCNC(=O)c2nn(C)c3c2CSc2ccccc2-3)cc1OC 11.2 µM, COc1ccc(C)cc1NC(=O)c1nn(-c2ccccc2)cc1OC 15.8 µM

Growth rescue (activation), inconclusive:
O=C1c2ccccc2C(=O)c2c(/C=C/N3CCCCC3)ccnc21 -90.7% [activator]

Growth rescue (activation), inactive:
Cc1cc(C)nc(NS(=O)(=O)c2ccc(NC(=S)NC(=O)C(C)(C)C)cc2)n1 -9.59%, COc1ccc(C)cc1-n1c(SCC(=O)Nc2cc(C)on2)nc2ccccc2c1=O 12.2% [at 9.22 µM], Cc1ccc(NC(=O)Nc2nnc(SCC(=O)N3CCC(C)CC3)s2)cc1 11.4%, O=C(COc1ccccc1F)NNC(=O)c1cc(Br)ccc1Cl 26.6%, C=CCc1cccc(/C=N/c2ncn[nH]2)c1O 4.5%, O=c1c2cc3c(nc2ncn1Cc1ccccc1F)CCCC3 8.77%, O=C(NCC1CCCO1)C(c1ccc(F)cc1)N(CCCN1CCOCC1)C(=O)c1ccc(-c2ccccc2)[nH]1 (centres undefined) -21.7%, COc1ccccc1CNC(=O)c1oc2c(c1C)-c1nn(Cc3ccc(Cl)cc3)cc1CC2 5.55%, Nc1nc(-c2ccco2)nn1C(=O)c1ccccc1 20.3%, COc1ccc(OCCCC(=O)NCc2ccco2)cc1 -3.71%, c1ccc2nc(-c3ccc(N4CCOCC4)cc3)ccc2c1 26.8%, Cc1cccc(N2CCN(C(=O)Cn3c(=O)c4cccn4c4ccc(F)cc43)CC2)c1C -9.83%, Cc1ccc(N2CC(NC(=O)CCc3ccccc3)CC2=O)cc1 (centres undefined) 22.9%, CNC(=O)c1ccc(Nc2nnc(-c3ccc(C)c(S(=O)(=O)N4CCOCC4)c3)c3ccccc23)cc1 12.5%, CCOC(=O)COn1c(=O)c(-c2ccc(C)cc2)[n+]([O-])c2ccccc21 10.4%, Cc1ccc(NC(=O)CCc2c(C)nc3nc(C)nn3c2C)c(Cl)c1 13.2%, CCN(CC)C(=O)[C@H]1C[C@H](CC(=O)NCc2ccc(OC)c(OC)c2)C(=O)N2CCc3c([nH]c4ccc(Cl)cc34)[C@]12C 25%, Cc1noc(-c2ccc(C(F)(F)F)cc2)c1NC(=O)Nc1ccc(Cl)cc1 15.4%, CCOC(=O)N(C)c1c(CC)nc2c(OCc3ccccc3C)cccn12 11.2%, Cc1nn(CC(=O)Nc2cccc(C(F)(F)F)c2)c(=O)c2cccn12 0.704%, COc1cc(NC(=O)C(CCS(C)(=O)=O)N2Cc3ccccc3C2=O)cc(OC)c1OC (centres undefined) 6.48%

Reference: PubChem BioAssay AID652104 (National Center for Advancing Translational Sciences (NCATS), 2013)
